In all, about 390,000 compounds went through this assay and about 4,700 (1.2%) were called active. This list was built around the results that the source calls inconclusive (neither active nor inactive); the mix of calls is not that of the screen. The call rests on the fitted dose curve; in most records, active means well fitted inhibition curve with a large enough effect; inconclusive means small, poorly fitted or top-dose-only effect, or another doubt; inactive means no such curve, though single readings can be large or run the other way. A potency beside an inconclusive call is a rough fit, not a confirmed value.
target: DNA polymerase eta (Homo sapiens) (UniProt Q9Y253); test: qHTS for Inhibitors of Polymerase Eta; conditions: recombinant Pol eta, fluorescent DNA replication assay; series mostly up to 114 µM
Chain of UniProt Q9Y253 (Q9Y253 whole entry, looked up): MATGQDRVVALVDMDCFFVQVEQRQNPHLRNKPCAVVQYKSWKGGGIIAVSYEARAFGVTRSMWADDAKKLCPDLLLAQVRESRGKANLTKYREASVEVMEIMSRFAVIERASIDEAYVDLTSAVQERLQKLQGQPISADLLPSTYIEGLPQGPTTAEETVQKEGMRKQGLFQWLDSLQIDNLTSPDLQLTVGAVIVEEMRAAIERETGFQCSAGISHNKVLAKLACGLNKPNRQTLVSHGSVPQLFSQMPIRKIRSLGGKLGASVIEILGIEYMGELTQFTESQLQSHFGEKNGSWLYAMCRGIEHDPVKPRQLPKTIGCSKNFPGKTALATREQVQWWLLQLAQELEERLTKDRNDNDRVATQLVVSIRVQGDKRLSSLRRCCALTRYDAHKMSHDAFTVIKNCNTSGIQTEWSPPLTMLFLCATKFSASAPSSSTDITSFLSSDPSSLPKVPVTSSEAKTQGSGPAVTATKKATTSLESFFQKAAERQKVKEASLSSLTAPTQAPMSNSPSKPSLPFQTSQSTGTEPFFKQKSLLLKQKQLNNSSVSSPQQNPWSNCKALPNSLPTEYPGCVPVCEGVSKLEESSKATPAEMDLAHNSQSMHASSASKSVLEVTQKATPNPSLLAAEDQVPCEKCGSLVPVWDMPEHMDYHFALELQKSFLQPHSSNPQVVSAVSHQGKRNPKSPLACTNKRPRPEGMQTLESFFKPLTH
Outline: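 Fluorescent replication assay: 50 nM final substrate added after a 15 min room-temperature compound preincubation with 10 nM enzyme. Signal taken at 0 min and again at 10 min.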
Potency means the concentration at half of the fitted maximal effect; tags describe the fitted curve by direction and shape.

Compound	Potency
CC(=O)c1ccc(S(=O)(=O)Nc2ccc(-c3ccc4nnc(C)n4n3)cc2)cc1	active: 20 µM
COc1ccc2sc3c(=O)[nH]c4ccccc4c3c2c1	inconclusive: 8.91 µM [inhibitor, partial curve, poor fit]
Cc1cc(-c2[nH]nc3c2C(c2ccsc2)C(C#N)=C(N)O3)c(C)s1 (centres undefined)	inconclusive: 17.8 µM [inhibitor, partial curve, poor fit]
Cc1ccc(CNC(=O)C2CCCN2S(=O)(=O)c2ccc3c(c2)C(C)(C)C(=O)N3C)cc1 (centres undefined)	inconclusive: 89.1 µM [inhibitor, partial curve, poor fit]
CC(=O)COC(=O)c1ccc2noc(-c3ccccc3)c2c1	inconclusive: 39.8 µM [inhibitor, partial curve]
CCN(CC)CCN(C(=O)c1cc2ccccc2cc1OC)c1nc2ccc(F)cc2s1	inconclusive: 44.7 µM [inhibitor, partial curve, poor fit]
O=C(Nc1ccc2nc(-c3ccc(Br)o3)[nH]c2c1)c1cccs1	inconclusive: 15.8 µM [inhibitor, full curve, poor fit]
Cc1cc(-c2ccc(C(C)C)c(S(=O)(=O)N3CCN(c4ccccn4)CC3)c2)on1	inactive
Cc1nn(-c2ccccc2)c(C)c1-c1cc(C(=O)N/N=C/c2ccc(O)cc2)[nH]n1	active: 28.2 µM
O=c1c2ccccc2c(C=Nc2cccc(O)c2)c(O)n1-c1ccc2c(c1)OCO2	active: 12.6 µM
COc1ccc([C@H]2CC(=O)c3c(O)cc(O)cc3O2)cc1O	inactive
COc1cc(/C=C2/C(=O)NN(c3ccc(Cl)cc3)C2=O)ccc1OC(=O)c1ccco1	active: 28.2 µM
CC(C)Sc1nsc2nc(=O)c(/C=C3\C=Nc4ccccc43)c(N)n12	inconclusive: 79.4 µM [inhibitor, partial curve]
Cc1c(Cl)cnc(NC(=O)COC(=O)c2ccc3ncsc3c2)c1Cl	inconclusive: 50.1 µM [inhibitor, partial curve]
COc1cccc(CN(C)C(=O)c2cccc(OCc3ccccc3)c2)c1	inconclusive: 56.2 µM [inhibitor, partial curve, poor fit]
COc1ccc(NC(=O)COC(=O)c2ncc(Cl)c(Cl)c2Cl)c(OC)c1	inconclusive: 39.8 µM [inhibitor, partial curve, poor fit]
Cc1ccc(CN2CCNC(=O)C2CC(=O)NCCCn2nnc3ccccc32)cc1 (centres undefined)	inactive
O=[N+]([O-])c1ccc(O)c(/C=N/NC(=S)Nc2ccc(Cl)cc2Cl)c1	inactive
Cc1c(NC(=O)c2ccc3c(c2)C(=O)N(Cc2ccco2)C3=O)cccc1C(=O)O	active: 31.6 µM
C#CCn1c(=NC(=O)c2ccc(Br)s2)sc2cccc(OC)c21	inconclusive: 14.1 µM [inhibitor, full curve, poor fit]
Cc1cc(C)c2nc3nc(C)c(C)cc3c(N)c2c1	inactive
O=C(O)c1[nH]c2ccccc2c1C(c1cc(Cl)cc([N+](=O)[O-])c1O)c1c(C(=O)O)[nH]c2ccccc12	active: 20 µM
Cn1c(CCNC(=O)C(C)(C)C)nc2ccccc21	active: 25.1 µM

Compound	Potency
Cc1cccc(NC(=O)CSCC(=O)Nc2sccc2C#N)c1	inconclusive: 31.6 µM [inhibitor, single point]
Fc1ccc(C2=CC(c3ccco3)n3ncnc3N2)cc1 (centres undefined)	inconclusive: 39.8 µM [inhibitor, partial curve, poor fit]
O=C(N/N=C/c1ccco1)c1ccccc1OCc1ccccc1Cl	inactive
CN(C)CCNc1ccc2nnn3c4ccc(O)cc4c(=O)c1c23	inconclusive: 14.1 µM [inhibitor, partial curve, poor fit]
C=CCOc1ccc(/C(O)=C2/C(=O)C(=O)N(CCCn3ccnc3)C2c2cccs2)cc1 (centres undefined)	inconclusive: 17.8 µM [inhibitor, partial curve]
O=c1c(Cl)c(NS(=O)(=O)c2ccccc2)cnn1-c1ccccc1	inconclusive: 100 µM [inhibitor, partial curve, poor fit]
Cc1cc(C(=O)COC(=O)c2ccc(N)cc2)c(C)n1-c1c(C)n(C)n(-c2ccccc2)c1=O	inconclusive: 79.4 µM [inhibitor, partial curve, poor fit]
CC(C)c1ccccc1-n1c(SCc2cc(=O)oc3ccc4ccccc4c23)nnc1-c1cccnc1	inconclusive: 28.2 µM [inhibitor, partial curve, poor fit]
Cc1ccc(NC(=O)c2ccc(NCc3ccco3)c([N+](=O)[O-])c2)cc1Cl	inconclusive: 8.91 µM [inhibitor, full curve, poor fit]
O=C(/C=C/c1ccco1)NC(=S)Nc1ccccc1	inconclusive: 35.5 µM [inhibitor, full curve]
C=Cc1ccc(Cn2c(C(=O)O)c(CNC3CCCCC3)c3ccc(OC)cc32)cc1	inconclusive: 89.1 µM [inhibitor, single point]
CC(C)C1N=C2c3ccccc3N=C(SCC(=O)c3ccc(O)c(O)c3)N2C1=O (centres undefined)	active: 2.24 µM
O=C(COc1ccccc1F)N1N=C(c2cccs2)CC1c1ccco1 (centres undefined)	inconclusive: 12.6 µM [inhibitor, partial curve]
NCCCC[C@@H]1NC(=O)[C@H](CCC(=O)O)NC(=O)c2cc([N+](=O)[O-])cc(I)c2SC[C@@H](C(=O)NCC(N)=O)NC1=O	inactive
CCn1c(=O)c(=O)n(CC)c2cc(N3CCCCC3)c(NC(=O)c3ccccc3OC)cc21	inactive
CSc1nc2c(sc3ccccc32)c(=O)n1Cc1ccc(C)cc1	inactive
CNC(=O)COC(=O)c1cc(NC(=O)c2ccco2)c(OC)c(OC)c1	inconclusive: 31.6 µM [inhibitor, partial curve]
O=C(CSc1nc(=O)n(Cc2ccncc2)c2c1CCC2)Nc1ccc(F)cc1F	inactive
O=C1CCCC(=O)C1=C1SCCS1	inconclusive: 35.5 µM [inhibitor, partial curve, poor fit]
CCCN(CCC)Cc1c(C(=O)N/N=C/c2ccc(Br)cc2)nnn1-c1nonc1N	inconclusive: 31.6 µM [inhibitor, partial curve, poor fit]
O=C(Nc1ccccc1Cl)c1cc2ccccc2o/c1=N\O	inconclusive: 79.4 µM [inhibitor, partial curve]
Cc1ccc2c(CC(=O)NNC(=O)c3ccncc3)coc2c1	active: 39.8 µM
O=C(O)c1cccc(-c2ccc(/C=N/Nc3nn[nH]n3)o2)c1	inconclusive: 56.2 µM [inhibitor, partial curve, poor fit]

Compound	Potency
CC(=O)Nc1cccc(NC(=O)Cc2cccs2)c1	active: 35.5 µM
CCOc1ccccc1NC(=O)CSc1nc2nc(-c3cccs3)cc(C(F)(F)F)c2c(=O)[nH]1	active: 79.4 µM
O=C(N/N=C/c1ccc(Sc2ccccn2)o1)c1cc2ccccc2cc1O	active: 17.8 µM
CCCCC[C@@H]1C=C(C(=O)O)[C@H](c2ccc(CC)cc2)N1S(=O)(=O)c1ccc(C)cc1	inactive
CCOc1ccccc1CNc1ccc(O)cc1	active: 50.1 µM
CN(C(=O)COC(=O)CCCc1c[nH]c2ccccc12)c1c(N)n(Cc2ccccc2)c(=O)[nH]c1=O	inconclusive: 100 µM [inhibitor, partial curve, poor fit]
COc1ccccc1N1CCN(C2CCCN(C(=O)c3cccc(-c4ccco4)c3)C2)CC1 (centres undefined)	inactive
O=C(NCc1ccncc1)C(=O)NCc1ccncc1	inactive
O=c1nc(/C=C/c2cccn2-c2ccc([N+](=O)[O-])cc2)cc(C(F)(F)F)[nH]1	active: 44.7 µM
COc1cc(C(=O)N/N=C/c2sc(=O)n(-c3ccccc3)c2Cl)cc(OC)c1OC	inconclusive: 39.8 µM [inhibitor, partial curve, poor fit]
COCCCNC(=O)c1cn(C)c(=O)c2c1c1ccccc1n2C	inactive
COc1ccc(NC(=O)CCCn2c(=O)c3cccn3c3cccnc32)cc1Cl	inconclusive: 89.1 µM [inhibitor, single point]
C[n+]1cc2c3c(ccc2c2ccc4cc5c(cc4c21)OCO5)OCO3	inconclusive: 3.55 µM [inhibitor, full curve]
CC1CCN(C(=O)CSc2nc(N)c3c4c(sc3n2)CN(C)CC4)CC1	inconclusive: 14.1 µM [inhibitor, partial curve, poor fit]
CC(C)Cc1csc(=S)[nH]1	inactive
O=C(OCc1ccco1)c1ccc(S(=O)(=O)N2CCCCC2)cc1	active: 10 µM
O=C(OCCC12CC3CC(CC(C3)C1)C2)c1ccc(NCc2cc(O)ccc2O)cc1	inconclusive: 11.2 µM [inhibitor, full curve, poor fit]
CCC1=NN2C(=N)/C(=C\c3ccc(OCCOc4ccccc4OC)cc3)C(=O)N=C2S1	inconclusive: 35.5 µM [inhibitor, partial curve]
Cc1ccccc1CSc1nnc(-c2ccco2)n1Cc1ccco1	inconclusive: 89.1 µM [inhibitor, partial curve, poor fit]
O=C(N/N=C/c1ccoc1)c1ccccc1	inconclusive: 15.8 µM [inhibitor, full curve, poor fit]
N#C/C(=C\c1ccc(OCc2ccc(C(=O)O)cc2)cc1)C(=O)N1CCOCC1	active: 28.2 µM
CCOc1ccc(C(=O)Nc2cccc3cccnc23)cc1	inactive
O=C(Cc1cccs1)Nc1ccc(F)cc1F	active: 79.4 µM

Reference: PubChem BioAssay AID588591 (National Center for Advancing Translational Sciences (NCATS), 2011)
